A collection of fitness landscapes (doi:10.1016/j.celrep.2020.107928)
Over roughly 81,000 sequences, “one-hybrid fitness for binding NBS DNA” has its median near -0.1; the highest 2% begin near 0.36. The list shows a part of the results.

B1: Caulobacter ParB omega fusion; a variant is named by its letters at X, in order, B8GW30 (parent)
chain: MESVVVGEPGMSEGRRGLGRGLSALLGEVDAAPAQAPGEQLGGSREAPIEILQRNPDQPRRTFREEDLEDLSNSIREKGVLQPILVRPSPDTAGEYQIVAGERAWRAAQRAGLKTVPIMVRELDDLAVLEIGIIENVQRADLNVLEEALSYKVLMEKFERTQENIAQTIGKSXSHVANXMRLLXLPDEVQSYLVSGELTAXHARAIAAAADPVALAKQIIEGGLSVRETEALARKAPNLSAGKSKGGRPPRVKDTDTQALESDLSSVLGLDVSIDHRGSTGTLTITYATLEQLDDLCNRLTRGI

Variants of: B1
Experiment: one-hybrid fitness for binding NBS DNA (the Noc-binding site; scaled: cognate 1, non-cognate 0); higher = stronger binding
Conditions: with NBS DNA site
Summary of the method: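 Fitness is the rescaled log change in variant-to-wild-type read ratio, measured by Illumina sequencing of plasmids before and after bacterial one-hybrid selection. The scale puts cognate at 1 and non-cognate at 0. Selection of Caulobacter ParB libraries, four specificity codons randomised, took place in E. coli USO with a HIS3 reporter, site 19 bp from the promoter, over 48 hours at 37°C on M9-minus-histidine with 0.1 mM IPTG and 5 mM 3-AT.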

one-hybrid fitness for binding NBS DNA, 0.332:
CFYL

one-hybrid fitness for binding NBS DNA, 0.323:
QMKW

one-hybrid fitness for binding NBS DNA, 0.38:
QYRN

one-hybrid fitness for binding NBS DNA, 0.297:
QHNH

one-hybrid fitness for binding NBS DNA, 0.219:
PRAR

one-hybrid fitness for binding NBS DNA, ≤ 0.2:
PAGR
PGLW
NYLS
HECG
YQVS
WWKG
PTFT
SETS
PNGV
WRMT
HQHG
SCKD
IYYG
FPPF
YEFT
GAHT
THYN
YYCT
DNQR
LQGS
RQCW
DYVI
AGRM
CFIG
DGII
RSCH
TFYR
LPQW
QDHR
HIDC
DTSA
KKWC
TVIW
KNKW
HWSQ
IRQK
WWVS
QCYL
RIRN
CRIY
TRSW
AKTG
ARAR
LMLR
AGRL
FITF
QMPW
YNIS
NNYS
TEVV
TMWI
TLRL
LHIG
LNEL
FYLW
IRRI
GAQV
YYFS
VKNY
PECN
LCYF
GESL
SFHA
REKV
TFNF
PPPV
CDKT
VNTV
ASSQ
GTPI
CVNE
SFKH
HILA
GSCP
PTAE
HYMC
LATH
SAQI
QEAI
HAAK
TARM
RGCI
QVAQ
DKHD
QFEN
FGHG
GGWK
RISY
GSGA
YFKT
SAYY
HADG

one-hybrid fitness for binding NBS DNA, 0.221:
QYNY
